# According to the supplement of paper PMC12636428:
# System: Saccharomyces cerevisiae
# Test: transcriptional activation domain activity (GFP:mCherry ratio, weighted mean of sorted bins, harmonized to initial dataset scale) (arbitrary fluorescence ratio units); higher = stronger transcriptional activation
# Conditions: beta-estradiol 1 µM; induction time 4 h
# Method: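 53-aa protein tiles (fungal proteins plus yeast TF control tiles) fused C-terminally to a DBD-estrogen-binding domain-mCherry synthetic TF, integrated in S. cerevisiae (URA3 locus) with a GFP reporter. Cells were induced with 1 uM beta-estradiol for 4 h at 30 C, FACS-sorted into 8 bins by GFP:mCherry ratio and barcodes sequenced. Activity is the read-weighted mean bin fluorescence (GFP:mCherry), averaged over barcodes (median 12); tiles under 50 reads were discarded. New active-learning values were harmonized by linear fit onto the scale of the initial (Hummel et al.) dataset. The assay saturates at low and high signal.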
row,Sequence,transcriptional activation domain activity
1,DEVMKIMPVQKQTRAGQRTRFKAFVVIGDSNGHVGLGVKCSKEVATAIRAAII,43500
2,EVMKIKPVQKQTRAGQRTRFKAIVVIGDSNGHVGLGIKTSKEVATAIRAAIII,56300
3,EVMKIKPVQKQTRAGQRTRFKAVVIIGDSEGHVGLGIKTSKEVATAIRAAIII,46400
4,EVMKIMPVQKQTRAGQRTRFKAFVVIGDHNGHVGLGVKCSKEVATAIRGAIIL,44200
5,EVMKIMPVQKQTRAGQRTRFKAFVVIGDSNGHVGLGVKCSKEVATAIRGAIIL,36600
6,KDEVMKIKPVQKQTRAGQRTRFKAVVVIGDSNGHVGLGIKTSKEVATAIRAAI,67100
7,LKDEVMKIKPVQKQTRAGQRTRFKAIVVIGDSEGHVGLGIKTSKEVATAIRAA,57000
8,MKIKSVQKQTRAGQRTRMKAIVVLGDSNGHVGLGIKTAKEVATAIRAAIIIAK,55900
9,RSMPIRKDDEVLIVRGKDKGKEGKVVQVYRKKWVIHVERVTKDKTNGATVQIG,33500
